Data on 54 compounds can be found in publication PMC4336329 (PLoS ONE, 2015).

Out of some 310,000 compounds screened, about 14,000 (4.5%) showed an effect of 50% or more. Effects have a minus sign here. The list shows a part of the results.
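Also: peak tail current of the secondary pulse compared with the same well before compound.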

In the assay the target is human ether-à-go-go-related gene (hERG) potassium channel (human, UniProt Q12809). Description: primary screen, population patch clamp on CHO cells stably expressing hERG.
Sequence of human ether-à-go-go-related gene (hERG) potassium channel (Q12809 whole entry, looked up): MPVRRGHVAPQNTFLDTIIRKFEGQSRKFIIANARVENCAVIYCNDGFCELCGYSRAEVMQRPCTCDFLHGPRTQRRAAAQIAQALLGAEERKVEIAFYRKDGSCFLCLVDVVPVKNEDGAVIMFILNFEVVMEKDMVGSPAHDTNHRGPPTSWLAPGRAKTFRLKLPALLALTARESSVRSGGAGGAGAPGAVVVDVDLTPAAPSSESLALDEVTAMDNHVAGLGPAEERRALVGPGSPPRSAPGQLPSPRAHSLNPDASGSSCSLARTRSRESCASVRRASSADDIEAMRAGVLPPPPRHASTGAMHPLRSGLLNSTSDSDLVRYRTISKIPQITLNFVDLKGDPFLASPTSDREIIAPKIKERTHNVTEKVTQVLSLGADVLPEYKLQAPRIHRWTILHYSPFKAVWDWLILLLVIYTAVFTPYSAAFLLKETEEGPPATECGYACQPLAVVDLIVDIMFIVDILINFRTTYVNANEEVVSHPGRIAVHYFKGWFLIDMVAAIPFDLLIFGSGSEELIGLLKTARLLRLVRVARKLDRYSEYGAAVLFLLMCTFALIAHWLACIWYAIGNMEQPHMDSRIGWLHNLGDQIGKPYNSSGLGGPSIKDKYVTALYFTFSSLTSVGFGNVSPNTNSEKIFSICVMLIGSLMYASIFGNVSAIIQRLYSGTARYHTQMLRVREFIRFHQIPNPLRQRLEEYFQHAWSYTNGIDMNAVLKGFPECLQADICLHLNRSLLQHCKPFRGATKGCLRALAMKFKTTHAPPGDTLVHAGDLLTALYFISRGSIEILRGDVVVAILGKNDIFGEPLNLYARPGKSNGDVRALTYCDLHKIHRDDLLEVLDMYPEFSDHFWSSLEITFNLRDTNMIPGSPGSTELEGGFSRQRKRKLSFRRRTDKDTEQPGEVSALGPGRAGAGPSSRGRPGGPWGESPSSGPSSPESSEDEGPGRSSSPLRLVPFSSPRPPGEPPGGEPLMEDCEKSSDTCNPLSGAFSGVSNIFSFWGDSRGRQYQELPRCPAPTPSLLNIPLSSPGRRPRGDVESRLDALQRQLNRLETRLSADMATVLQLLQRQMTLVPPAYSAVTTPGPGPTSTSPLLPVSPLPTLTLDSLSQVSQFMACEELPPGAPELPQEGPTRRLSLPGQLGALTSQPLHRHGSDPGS
In the case of `COc1ccccc1C(=O)NCCC(=O)OCC(=O)Nc1ccc(S(N)(=O)=O)cc1`, the “hERG current change (%, negative = inhibition) at 10uM” value is given as -2.51%.

In the case of `Cc1oc2ccc(O)c(CN3CCOCC3)c2c1C(=O)c1ccc(Cl)cc1`, the “hERG current change (%, negative = inhibition) at 10uM” value is -41%.

In the case of `COC(=O)c1c(C)[nH]c(C(=O)OC(C)C(=O)N2CCOCC2)c1C` (stereo not drawn), the “hERG current change (%, negative = inhibition) at 10uM” value is -0.266%.

`COc1cc(C(=O)NCC2(N3CCCCC3)CCCCC2)ccc1OCC(=O)N1CCOCC1`: the “hERG current change (%, negative = inhibition) at 10uM” value was -3.67%.

As to `O=C(CSc1nnnn1-c1ccccc1)NCC1(N2CCCCC2)CCCCC1`, the “hERG current change (%, negative = inhibition) at 10uM” value is given as -62.3%.

Regarding `CCOC(=O)CCC(NC(=O)c1cncc(O)c1)C(=O)OCC.Cl` (stereo not drawn), the “hERG current change (%, negative = inhibition) at 10uM” value is reported as 6.86%.

With `Cc1cccc(NC(=O)COC(=O)Cc2cccc(C(F)(F)F)c2)c1C`, the “hERG current change (%, negative = inhibition) at 10uM” value stood at 22.8%.

As to `Cc1ccc(S(=O)(=O)c2c(N)n(CCN3CCOCC3)c3nc4ccccc4nc23)cc1C`, the “hERG current change (%, negative = inhibition) at 10uM” value is recorded as -20.6%.

On to `COc1ccccc1/C=C/C(=O)OCC(=O)Nc1ccc(Cl)cn1`, for which the “hERG current change (%, negative = inhibition) at 10uM” value was 38.9%.

As to `CC(C)CNC(=O)COC(=O)c1ccc(F)cc1Cl`, the “hERG current change (%, negative = inhibition) at 10uM” value is on record as 10.7%.

For the compound `CN(C)c1ccc(C2CC(c3cccc(NS(C)(=O)=O)c3)=NN2C(=O)c2ccccc2)cc1` (stereo not drawn), the “hERG current change (%, negative = inhibition) at 10uM” value is listed as 14.1%.

For the compound `COCCN(CC(=O)NCc1ccccc1)C(=O)CCC(=O)Nc1ccccn1`, the “hERG current change (%, negative = inhibition) at 10uM” value is reported as 4.54%.

In the case of `CC1(C)OC(c2ccccc2)=C/C(=C/C=C2C(=O)c3ccccc3C2=O)O1`, the “hERG current change (%, negative = inhibition) at 10uM” value worked out at 17.9%.

With `NC(=O)[C@@H]1CC2(CC(c3cccc(NC(=O)[C@@H]4CCC(=O)N4)c3)=NO2)CN1C(=O)Cc1ccc([N+](=O)[O-])cc1` (stereo partly drawn), the “hERG current change (%, negative = inhibition) at 10uM” value is 11.5%.

`BrC(/C=N/Nc1nc(N2CCOCC2)nc(N2CCOCC2)n1)=C/c1ccccc1`: the “hERG current change (%, negative = inhibition) at 10uM” value is given as -27%.

`Cc1nnc(SCC(=O)NC2CCCCCC2)n1C(C)C`: the “hERG current change (%, negative = inhibition) at 10uM” value is -2.12%.

Take `COc1ccc(N2CCN(C3CC(=O)N(c4ccc5c(c4)OCCO5)C3=O)CC2)cc1` (stereo not drawn): the “hERG current change (%, negative = inhibition) at 10uM” value is -2.06%.

As to `O=C(O)C(=O)O.c1ccc(CCNc2nc(-c3ccccn3)cs2)cc1`, the “hERG current change (%, negative = inhibition) at 10uM” value is reported as -8.9%.

Regarding `Cc1ccc2c(c1C)OC(=O)CC2(C)C`, the “hERG current change (%, negative = inhibition) at 10uM” value is listed as 4.35%.

Consider `CN(C(=O)CN1C(=O)NC2(CCc3ccccc32)C1=O)C1CCS(=O)(=O)C1` (stereo not drawn), for which the “hERG current change (%, negative = inhibition) at 10uM” value turned out to be 16.5%.

As for `CCOC(=O)C(C)n1cnc2c(nnn2-c2cccc(OC)c2)c1=O` (stereo not drawn), the “hERG current change (%, negative = inhibition) at 10uM” value is 13.4%.

As to `COc1ccc(NC(=O)C2CCCN2S(=O)(=O)c2cccc3cccnc23)cc1OC` (stereo not drawn), the “hERG current change (%, negative = inhibition) at 10uM” value is -3.59%.

Consider `CS(=O)(=O)N1CCN(c2ccccc2NC(=O)CSc2ccc(Cl)cc2)CC1`, for which the “hERG current change (%, negative = inhibition) at 10uM” value was -14.2%.

On to `COc1ccc(CNC(=O)Cn2ncn3cccc3c2=O)cc1`, for which the “hERG current change (%, negative = inhibition) at 10uM” value came out at 3.12%.

In the case of `CC(C)NC(=O)Cn1c(SCC(=O)N2CCCCCC2)nc2ccccc21`, the “hERG current change (%, negative = inhibition) at 10uM” value is 9.85%.

Take `C=CCc1cccc(C=Nc2cc(Br)ccc2O)c1O`: the “hERG current change (%, negative = inhibition) at 10uM” value is recorded as -0.622%.

As for `Cc1ccc(S(=O)(=O)N/N=C/c2cccc3c2OCCO3)cc1`, the “hERG current change (%, negative = inhibition) at 10uM” value is on record as -14.9%.

Take `CCN1CCN(C(c2ccccc2)c2nnnn2Cc2ccc3c(c2)OCO3)CC1.Cl` (stereo not drawn): the “hERG current change (%, negative = inhibition) at 10uM” value is -39.1%.

Take `Cc1cc(OCCCn2ccnc2)ccc1[N+](=O)[O-].O=C(O)C(=O)O`: the “hERG current change (%, negative = inhibition) at 10uM” value is -2.51%.

In the case of `Cc1ccc(C2=NC3(CCCC3)N=C2SCC(=O)Nc2ccc3c(c2)OCCO3)cc1`, the “hERG current change (%, negative = inhibition) at 10uM” value stood at 5.06%.

With `CSc1cccc(NC(=O)C2C3C=CC4(O3)C2C(=O)N(CCCN2CCOCC2)C4C(=O)NC2CCCCC2)c1` (stereo not drawn), the “hERG current change (%, negative = inhibition) at 10uM” value amounted to 17.1%.

For `Cc1csc(NC(=O)CSc2nc3ccccc3c(=O)[nH]2)n1`, the “hERG current change (%, negative = inhibition) at 10uM” value is on record as 4.76%.

`CCN(C(=O)COC(=O)CNC(=O)C12CC3CC(CC(C3)C1)C2)C1CCS(=O)(=O)C1` (stereo not drawn): the “hERG current change (%, negative = inhibition) at 10uM” value stood at 16.6%.

On to `COc1ccc(C(=O)Nc2ccc3ncccc3c2)cc1`, for which the “hERG current change (%, negative = inhibition) at 10uM” value is 21.8%.

Consider `CC1CCCCC1NC(=O)CN(C)S(=O)(=O)c1cccc2cccnc12` (stereo not drawn), for which the “hERG current change (%, negative = inhibition) at 10uM” value is reported as -0.115%.

For the compound `Cc1nn(C(=O)c2ccccc2)c2c1C(=O)CC(C)(C)C2`, the “hERG current change (%, negative = inhibition) at 10uM” value is -8.17%.

With `O=C(Oc1ccc(OC(=O)N2CCOCC2)cc1)c1ccccc1`, the “hERG current change (%, negative = inhibition) at 10uM” value was determined as 10.8%.

Consider `Cn1c(CCc2nc3ccccc3[nH]2)nnc1SCC#N`, for which the “hERG current change (%, negative = inhibition) at 10uM” value came to 17.3%.

Consider `CCc1ccc2c(CN3CCN(S(=O)(=O)c4ccc5c(c4)OCCO5)CC3)cc(=O)oc2c1`, for which the “hERG current change (%, negative = inhibition) at 10uM” value is given as -4.65%.

As to `C#CCNC(=O)C(C)c1ncc(C(F)(F)F)cc1Cl` (stereo not drawn), the “hERG current change (%, negative = inhibition) at 10uM” value is given as 22.2%.

Turning to `CSc1ccc(CN2CCC(n3nccc3NC(=O)CCCc3ccccc3)CC2)cc1`, the “hERG current change (%, negative = inhibition) at 10uM” value is -82.5%.

In the case of `CCCC(=O)Nc1ccc(C(=O)Nc2cc(C(F)(F)F)ccc2Cl)cc1`, the “hERG current change (%, negative = inhibition) at 10uM” value was 15.4%.

With `COc1ccc(CCNC(=O)C2CCN(C(=O)c3cccs3)CC2)cc1`, the “hERG current change (%, negative = inhibition) at 10uM” value is -0.649%.

Consider `Cc1cccc(NC(=O)CN2CCN(C(=O)c3oc4c(Cl)cccc4c3C)CC2)c1C`, for which the “hERG current change (%, negative = inhibition) at 10uM” value is recorded as -43.6%.

Turning to `CCc1ccc(-c2nnn(Cc3nc4ccccc4s3)n2)cc1`, the “hERG current change (%, negative = inhibition) at 10uM” value was -10.3%.

Turning to `Nc1nn(S(=O)(=O)c2ccccc2)cc1-c1cccc([N+](=O)[O-])c1`, the “hERG current change (%, negative = inhibition) at 10uM” value is given as 6.01%.

In the case of `Cc1ccc(S(=O)(=O)N2CCC[C@H]2C(=O)OCC(=O)c2ccc3c(c2)NC(=O)CO3)cc1`, the “hERG current change (%, negative = inhibition) at 10uM” value is listed as -42.1%.

`O=C(NC1CC1)C1=C[C@@H](c2c[nH]c3ccccc23)C[C@@H](OCCCCO)O1`: the “hERG current change (%, negative = inhibition) at 10uM” value came out at 1.96%.

On to `Cc1cc(C(=O)Nc2nc3ccc(Cl)cc3s2)nn1C`, for which the “hERG current change (%, negative = inhibition) at 10uM” value was 5.89%.

Turning to `O=C(O)C(=O)O.c1ccc(COc2ccc(OCCCN3CCCCC3)cc2)cc1`, the “hERG current change (%, negative = inhibition) at 10uM” value is on record as -78.3%.

`C/C(=N\Nc1cccc(Cl)c1)c1ccncc1`: the “hERG current change (%, negative = inhibition) at 10uM” value worked out at 0.0738%.

With `Cc1nn(-c2ccccc2)c(N2CCCC2)c1/C=N/NC(=O)c1cc(-c2cccs2)nc2ccccc12`, the “hERG current change (%, negative = inhibition) at 10uM” value is reported as -1.55%.

In the case of `COC(=O)c1cc(NC(=S)NCc2ccc(Cl)cc2)cc(C(=O)OC)c1`, the “hERG current change (%, negative = inhibition) at 10uM” value is recorded as -20.6%.

Regarding `CCc1ccc(Nc2ncc3c(n2)CC(C)CC3=O)cc1` (stereo not drawn), the “hERG current change (%, negative = inhibition) at 10uM” value is 14.3%.
